The whole screen tested about 420,000 compounds, of which about 64,000 (15%) were called active. The inconclusive results got no clear call from the source; some entries with a clear call stand among them for comparison. Calls follow the shape of the dose curve; as a rule, active = well fitted inhibition curve with a large enough effect; inconclusive = small, poorly fitted or top-dose-only effect; inactive = flat fitted curve, though single readings scatter. No potency is given beside an inconclusive call; the fits are too rough.
Assay: qHTS for Inhibitors of human tyrosyl-DNA phosphodiesterase 1 (TDP1): qHTS in cells in absence of CPT; also: nearly all actives have a fitted effect of over 55% in size
Conditions: DT40 Tdp1-/- hTDP1 cells, no CPT, ATP luminescence, 48 h; activity change, negative = growth inhibition: at 46.2 µM (top of the series) unless noted
How it was run: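 No-CPT arm: Tdp1-/-;hTDP1 DT40 cells (400/well) plus compounds, incubated ≥48 hr at 37 °C. Readout CellTiter-Glo luminescence.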
% is scaled to controls: 0 for no effect and ±100 for the full control effect; potency is read from the fitted curve at half-maximal effect; tags tell the direction and shape of the fitted curve.

SMILES	Potency	activity change, negative = growth inhibition
COc1cc(C(CCN2CCCC(C)C2)c2c(OC)cc(OC)c3c(-c4ccccc4)cc(=O)oc23)cc(OC)c1OC (stereo not given)	active: 18.4 µM	–
CCCN1CCN(C(=O)c2ccc(-c3ccc([N+](=O)[O-])cc3)o2)CC1	inconclusive [inhibitor, single point]	–
CCCCCCC(=O)N(O)C1CC(=O)N(c2ccc(Cl)cc2)C1=O (stereo not given)	active: 2.91 µM	–
Cc1cccc(CS(=O)(=O)c2ncc(Cl)c(C(=O)Nc3ccc(F)cc3)n2)c1	active: 1.84 µM	–
COC(=O)CN1C(=O)Nc2ccc(Br)cc2C1c1ccccc1 (stereo not given)	inconclusive [inhibitor, single point]	–
NCCNC(=O)Cc1cccc(NC(=O)Cc2ccc(Nc3ncnc4c3ncn4[C@@H]3O[C@H](CO)[C@@H](O)[C@H]3O)cc2)c1	inactive	–
Nc1ccc2cccnc2c1	inactive	–
CCOc1ccccc1NC(=O)CN(c1ccc(OC)cc1)S(=O)(=O)c1c(C)noc1C	active: 3.26 µM	–
Cc1cccc(C(=O)Nc2c(-c3ccc(F)cc3)nc3ccccn23)c1	inconclusive [inhibitor, single point]	–
Cc1ccc(NC(=O)c2cc3c(Cl)nc4ccc(C)cc4c3s2)c(Cl)c1	inconclusive [inhibitor, single point]	–
O=C(Nc1ccccn1)c1cc2ccccc2o1	inconclusive [inhibitor, single point]	–
COc1ccc(NC(=O)CSc2nc3ccccc3n2CC(=O)N2CCCC(C)C2)cc1 (stereo not given)	active: 20.6 µM	–
CC(NC(=O)OCc1ccccc1)C(=O)Oc1cc2oc(=O)cc(-c3ccccc3)c2cc1Cl (stereo not given)	inconclusive [inhibitor, single point]	–
Cc1nnc(C)n1N	inactive	–
O=C(NCCc1csc(-c2cccnc2)n1)c1ccc(Cl)cc1	–	inconclusive: -32.6% [inhibitor]
CCN(CC)CCN(Cc1cc2cc3c(cc2[nH]c1=O)OCO3)C(=S)NCC(C)C	inactive	–
COC(=O)c1ccc(NC(=O)CS(=O)(=O)Cc2ccccc2)cc1	inconclusive [inhibitor, single point]	–
C[C@@H](Nc1nc(Cl)nc2nc[nH]c12)c1ccccc1	active: 15.8 µM	–
CCOC(=O)Cc1csc(NC(=S)NC(=O)c2ccc(C)cc2)n1	inconclusive [inhibitor, single point]	–
COc1ccc(CNC(=O)c2cc(-c3cccs3)nc3ccccc23)c(OC)c1	inconclusive [inhibitor, partial curve, poor fit]	–
CCCCn1c(N)c(N(CC(C)C)C(=O)c2ccc(S(=O)(=O)N3CCCCCC3)cc2)c(=O)[nH]c1=O	inconclusive [inhibitor, single point]	–
O=C(OCc1ccccc1)N1CCC2CC1c1c(-c3ccc(C(F)(F)F)cc3)cccc12 (stereo not given)	inconclusive [inhibitor, single point]	–
O=C(O)CC1CCC1CC(=O)O (stereo not given)	inactive	–
O=C(Nc1ccccc1)c1cc(Cl)nc2ccccc12	inconclusive [inhibitor, single point]	–

SMILES	Potency	activity change, negative = growth inhibition
CCOC(=O)C1=C(N)Oc2ccc3ccccc3c2C1c1ccc(O)c(OC)c1 (stereo not given)	inconclusive [inhibitor, single point]	–
CC(=O)Nc1ccc(Sc2ncccc2C(=O)Nc2ccc(OC(F)(F)F)cc2)cn1	active: 5.17 µM	–
CCCCCCN1C[C@H](n2cc(C3CC3)nn2)[C@@H](O)C[C@@H]1c1ccc(OC)cc1	active: 20.6 µM	–
CCOc1ccccc1N1CC(c2nc3ccccc3n2CCOc2ccc(OC)cc2)CC1=O (stereo not given)	active: 18.4 µM	–
Cc1ccc(Cn2nc(C)c(NC(=O)c3cc(C)no3)c2C)cc1	inactive	–
CC(=O)N(Cc1cccnc1)c1nc2c(C)cc(C)cc2s1	inconclusive [inhibitor, single point]	–
Cc1ccc(NC(=S)NCCN(C2CCCCC2)C2CCCC2)cc1C	inconclusive [inhibitor, single point]	–
COc1ccc(-c2n[nH]c(=S)n2-c2ccc3c(c2)OCCO3)cc1	inconclusive [inhibitor, partial curve, poor fit]	–
c1ccc2c(c1)nc(N1CCOCC1)c1nnnn12	–	inconclusive: -31.1% [inhibitor]
COc1ccc(C)cc1NC(=O)c1cc2c(s1)CCC2	inconclusive [inhibitor, partial curve]	–
O=C(c1ccccc1O)N1N=C(C(F)(F)F)CC1(O)c1ccc([N+](=O)[O-])cc1 (stereo not given)	inconclusive [inhibitor, single point]	–
COc1ccc(-c2cc(C(=O)Nc3ccccc3O)c3ccccc3n2)cc1OC	inconclusive [inhibitor, partial curve]	–
O=C(Cn1cnc2c(nnn2Cc2ccccc2)c1=O)c1ccccc1	inconclusive [inhibitor, partial curve]	–
CCCCCc1cc(=O)oc2c(C(CCN(CC)CC)c3ccc(N(C)C)cc3)c(OC)cc(OC)c12 (stereo not given)	active: 16.4 µM	–
Cc1oc(-c2ccccc2F)nc1CS(=O)(=O)CC(=O)N1CCc2ccccc21	inconclusive [inhibitor, single point]	–
Cc1nnc(N2CCCC(C(=O)Nc3ccccc3C(F)(F)F)C2)c2nn(-c3ccccc3)c(C)c12 (stereo not given)	active: 18.4 µM	–
Cc1ccc2nc(-c3ccccc3)c(CN3CCN(c4ccccc4F)CC3)n2c1	inconclusive [inhibitor, single point]	–
CC(C)Oc1ccc(C(=O)Nc2ccc(N3CCCCC3)cc2)cc1	inactive	–
CC(C)NS(=O)(=O)c1ccc(NC(=O)c2cccnc2)cc1	inactive	–
CN(C)Cc1ccccc1Sc1cccc2ccccc12	inconclusive [inhibitor, partial curve]	–
CC1CCc2c(sc3nnn(Cc4ccccc4)c(=O)c23)C1 (stereo not given)	inconclusive [inhibitor, single point]	–
CCc1nc2c(OCc3ccc(Cl)cc3Cl)cccn2c1N(C)C(=O)C1CC1	inconclusive [inhibitor, single point]	–
CC(Cl)C(=O)Nc1cc(C(C)(C)C)nn1-c1ccccc1 (stereo not given)	inactive	–
Cc1ccc(NS(=O)(=O)c2ccc3[nH]c4c(c3c2)CCCC4)c(C)c1	inconclusive [inhibitor, single point]	–

SMILES	Potency	activity change, negative = growth inhibition
CC(=O)c1c(C)[nH]c(C(=O)Nc2ccc(Cl)c(S(=O)(=O)N3CCOCC3)c2)c1C	inconclusive [inhibitor, partial curve, poor fit]	–
COc1ccc(-c2nc3c4ccccc4ccn3c2CC2CCCCC2)cc1OC	active: 23.1 µM	–
Cc1ccc(NC(=O)c2ccccc2F)c(NC(=O)c2ccccc2F)c1	inconclusive [inhibitor, single point]	–
O=c1[nH][nH]c(C(F)(F)F)c1C=NCc1ccccc1Cl	inactive	–
CC(C)C[C@H]1CN([C@@H](Cc2ccccc2)CN2CCC[C@@H]2CN2C(=O)C(=O)NC[C@@H]2Cc2ccc(O)cc2)C(=O)C(=O)N1CCc1ccccc1	inconclusive [inhibitor, single point]	–
CCCCN(CC)C(=O)c1cc2cc3ccc(Cl)cc3nc2o1	inconclusive [inhibitor, partial curve]	–
CC(C)Oc1ccc(S(=O)(=O)N2CCOCC2)cc1NC(=O)Cc1cccs1	–	inconclusive: -35.9% [inhibitor]
CN(CCc1ccccc1)C(=O)c1cccc(NC(=O)Cc2cccc([N+](=O)[O-])c2)c1	inconclusive [inhibitor, single point]	–
CCOc1ccccc1-c1nc(-c2cc3ccc(C)cc3[nH]c2=O)no1	inconclusive [inhibitor, single point]	–
COc1ccc(C2=NOC(C(=O)NCc3cccnc3)C2)cc1OC (stereo not given)	inconclusive [inhibitor, partial curve]	–
CCc1ccc(NC(=O)[C@H](C)NC(=O)C2CCN(C(=O)[C@@H](NC(=O)OC(C)(C)C)C(C)C)CC2)cc1	inactive	–
COC(=O)c1ccccc1OCCCN(C)C	inactive	–
CCOc1cccc(CN2CCCC(N3CCc4cc(OC)c(OC)cc4C3)C2)c1O (stereo not given)	inconclusive [inhibitor, partial curve, poor fit]	–
COc1ccc(OCC(=O)Nc2c(C(=O)N3CCN(C)CC3)oc3ccccc23)cc1	inactive	–
CCC(=O)N1CCc2cc(S(=O)(=O)NCCC(=O)N3CCN(Cc4ccccc4)CC3)ccc21	inactive	–
Cc1cc(=O)n2c(C(=O)Nc3ccc(C)c(Cl)c3)c(C(=O)Nc3ccccc3)sc2n1	inconclusive [inhibitor, single point]	–
Clc1ccccc1-c1cc(NCc2ccccc2)ncn1	inconclusive [inhibitor, single point]	–
Cc1ccc2[nH]c(C)c(CCNC(=O)c3cc4cc([N+](=O)[O-])ccc4oc3=O)c2c1	–	inconclusive: -32.3% [inhibitor]
Cc1cc(C)c(S(=O)(=O)Nc2cc(-c3cn4ccccc4n3)ccc2C)cc1C	active: 20.6 µM	–
CC(C)C1C(=O)N(Cc2cn(CC3CCCCC3)nn2)CCS(=O)(=O)N1Cc1ccc(-c2ccccc2)cc1 (stereo not given)	active: 4.11 µM	–
COc1ccc(C(=O)N(Cc2sccc2C)C2CCS(=O)(=O)C2)cc1Cl (stereo not given)	active: 18.4 µM	–
CS(=O)(=O)n1nc(-c2ccccc2)nc1NCc1ccco1	inconclusive [inhibitor, full curve, poor fit]	–

— PubChem BioAssay AID686978 (National Center for Advancing Translational Sciences (NCATS), 2013)
